± gives the standard error. Variants at the floor of the assay are shown more often than the library holds them.
B1: glmS ribozyme (parent)
chain: AUAAAAGCGCCAGAACUACAGAAAUGUAGUUGACGAGGAGGAGGUUUAUCGAAUUUUCGGCGGAUGCCUCCAAA

What was measured:
Conditions in all cases: with glucosamine-6-phosphate
[1] = variants of: B1; assay: self-cleavage kobs at 640 uM GlcN6P; higher = faster cleavage; RNA array
Method in brief: (§1)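 Barcoded ribozyme variants were transcribed in situ on sequenced MiSeq chips by E. coli RNA polymerase. At 37 °C, a hybridised Cy3 probe tracked them while glucosamine-6-phosphate (40 μM to 10 mM) in HEPES/KCl/Mg(OAc)2 buffer flowed in and tiles were imaged over ~14 h. Per-tile medians of signals normalised to baseline and to non-cleaving reference variants were fit to one- or two-exponential decays, giving kobs. kcat and KM came from weighted Michaelis–Menten fits across concentrations.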

[2] = variants of: B1; assay: self-cleavage kobs at 2500 uM GlcN6P; higher = faster cleavage; RNA array
Method in brief: as §1

[3] = variants of: B1; assay: self-cleavage kobs at 10000 uM GlcN6P; higher = faster cleavage; RNA array
Method in brief: as §1

[4] = variants of: B1; assay: self-cleavage kobs at 160 uM GlcN6P; higher = faster cleavage; RNA array
Method in brief: as §1

Row | Variant | self-cleavage kobs at 640 uM GlcN6P [1] [s⁻¹] | self-cleavage kobs at 2500 uM GlcN6P [2] [s⁻¹] | self-cleavage kobs at 10000 uM GlcN6P [3] [s⁻¹] | self-cleavage kobs at 160 uM GlcN6P [4] [s⁻¹]
1 | A33U C34G C70U | < 1e-05 |  |  | 
2 | A36U A53U U65A | < 1e-05 | < 1e-05 |  | 
3 | G35C G43A U69C | < 1e-05 |  |  | 
4 | A39C G63C C67G | < 1e-05 | < 1e-05 |  | 
5 | C34A A42U U55C G60C C71A | < 1e-05 |  |  | 
6 | A39C U55C G60U C67U C68U | < 1e-05 | < 1e-05 | < 1e-05 | 
7 | C34A G41A G60C | < 1e-05 | < 1e-05 |  | < 1e-05
8 | G35A C70G | < 1e-05 |  |  | < 1e-05
9 | G29U A53C G62C | < 1e-05 |  |  | 
10 | G35U U69G | < 1e-05 | < 1e-05 |  | 
11 | G35U G41U A42U G43A A48G U57C | < 1e-05 |  |  | 
12 | A33G U49C G62A | < 1e-05 | < 1e-05 |  | 
13 | G38U G60U | < 1e-05 |  |  | < 1e-05
14 | G35A A39C G63U | < 1e-05 | < 1e-05 |  | 
15 | U30A A48U G62A | < 1e-05 | < 1e-05 |  | < 1e-05
16 | A36U G41A C67U C71U | < 1e-05 |  |  | 
17 | A39C A52C C71A | < 1e-05 | < 1e-05 |  | 
18 | G35U G41A U55A G66A C68A | < 1e-05 | < 1e-05 |  | 
19 | U31C G66A C68A U69G | 7.97e-05 ± 4e-05 | 4.91e-05 ± 1.6e-05 |  | 
20 | G35C A64C | < 1e-05 | < 1e-05 | < 1e-05 | 
21 | G32A A42U U45C | < 1e-05 |  |  | 

Row | Variant | self-cleavage kobs at 640 uM GlcN6P [1] [s⁻¹] | self-cleavage kobs at 2500 uM GlcN6P [2] [s⁻¹] | self-cleavage kobs at 10000 uM GlcN6P [3] [s⁻¹] | self-cleavage kobs at 160 uM GlcN6P [4] [s⁻¹]
22 | U31G C34G | < 1e-05 |  | < 1e-05 | < 1e-05
23 | C34A U47G C50U | < 1e-05 |  |  | 
24 | U30A G38U U65G C68G | 0.000139 ± 4.3e-05 |  |  | 0.000204 ± 4.9e-05
25 | A39C G43U U47A C70U | < 1e-05 | < 1e-05 |  | 
26 | C34U U54A U69G | 0.000598 ± 0.0002 | 0.000128 ± 4.7e-05 | 0.000125 ± 3.4e-05 | 0.000126 ± 4.6e-05
27 | G35A U47A C61U | < 1e-05 | < 1e-05 |  | 
28 | U31G C50U U65C | < 1e-05 |  |  | 
29 | U31C A33U A36U G38C C58U U65G G66C C71U | < 1e-05 | < 1e-05 |  | 
30 | U31A A33C A52U | < 1e-05 | < 1e-05 |  | < 1e-05
31 | U30C U31A G41A C50U | < 1e-05 |  |  | 
32 | A36U G44U U56G | < 1e-05 |  |  | 
33 | G37A A39U | 0.00028 ± 4e-05 | 0.000838 ± 9.2e-05 | 0.00116 ± 0.00015 | 6.13e-05 ± 1.5e-05
34 | A33G U45C U46A G62A | < 1e-05 | < 1e-05 |  | < 1e-05
35 | G35U A53U G60U | < 1e-05 |  |  | < 1e-05
36 | A33U G60A C67U | < 1e-05 |  |  | 
37 | A33U U57G | < 1e-05 |  |  | 
38 | C34G G43A G44A U65A | < 1e-05 | < 1e-05 |  | 
39 | A39G A42G C50A | < 1e-05 | < 1e-05 |  | 
40 | G38U U55C | < 1e-05 |  |  | 
41 | G32A U55G G59U | < 1e-05 |  |  | 
42 | A33U A48G C67A | < 1e-05 |  |  | 

Row | Variant | self-cleavage kobs at 640 uM GlcN6P [1] [s⁻¹] | self-cleavage kobs at 2500 uM GlcN6P [2] [s⁻¹] | self-cleavage kobs at 10000 uM GlcN6P [3] [s⁻¹] | self-cleavage kobs at 160 uM GlcN6P [4] [s⁻¹]
43 | U30G U46G A52U U55A | < 1e-05 |  |  | 
44 | G38U G43A C71U | < 1e-05 | < 1e-05 |  | 
45 | U30G G32U G43U G51A C67G | < 1e-05 |  |  | 
46 | G35U G41C G63A | < 1e-05 |  |  | 
47 | G32C G37U G38C | < 1e-05 | < 1e-05 |  | 
48 | U30A C70G | 6.45e-05 ± 1.5e-05 |  |  | 6.81e-05 ± 1.8e-05
49 | G37A A52U U55C A64U | < 1e-05 |  |  | 
50 | A33U A36G | < 1e-05 | < 1e-05 |  | < 1e-05
51 | A33U A36C | < 1e-05 |  |  | < 1e-05
52 | G35U G43C U69G | < 1e-05 | < 1e-05 |  | 
53 | C34A U57A | < 1e-05 | < 1e-05 | < 1e-05 | 
54 | G32A U56A G59C G66U | < 1e-05 |  |  | 
55 | A39G A48G A52C | < 1e-05 | < 1e-05 |  | 
56 | A33G U55A | < 1e-05 |  | < 1e-05 | 
57 | A33G A42C | < 1e-05 | < 1e-05 | < 1e-05 | < 1e-05
58 | G35U U46C A48U | < 1e-05 | < 1e-05 |  | 
59 | A36U U49C U65A C71U | < 1e-05 |  |  | 
60 | U30A A33G A36C | < 1e-05 |  |  | 
61 | U31G U57C G59C G62U | < 1e-05 | < 1e-05 |  | 
62 | U31C G32U A42C U46G C71G | < 1e-05 |  |  | 
63 | G37C U46C G63U | < 1e-05 |  |  | 
